# The supplement of paper PMC12632987
# The full ranking holds about 2,300 sequences; the median of “median log2 fold change of GCK-ALFA target abundance (FLAG IP / Myc IP barcode read proportion)” is about 0.095, and the lowest 2% start at about -0.47. The list shows a part of the results.
# B1: LC3A_132_262 (protein)
# chain: SEELLKEAEEEIFKLIDEIVKLLQEGKNPWPKIVELDKKAEEYAEKLSLEETEKLVEKAKEYAKERFEKELDPNNEEARRALDIIEMLLEGVLIEKELRE
# B2: LC3A_28_1177 (protein)
# chain: NNVEASSAAALAEARAAAAAGEPAVITVHVPGNATQADTDLVNATIREIADILAGIPGSAIVVDVDSGVSQANLDAIMDTGEAVEAEHPDISVIFALDEE
# B3: LC3A_28_1274 (protein)
# chain: SHIEEELKKAREEAKAAVAAKEPQVITITVDGNATEEDIEKVMEAMEEIAELLKDVKDQAIVINVNKGVKQENIDKLADKAEEIEKKYPNVTVILALDED
# B4: LC3A_3_1496 (protein)
# chain: REELLEEARRVLEERGATPEQIEAVLRALERILEKGLEETVRELIRLFRENRDLSPEQILTTVLIVEDEVEEKNLSEEEAIEYARRVLRDVAEIEEIDEE
# B5: LC3A_free_46_2427 (protein)
# chain: VEVTIDLLLEGDDEEVLKKAVEEIKKAAKEIAEKYNAELEIKVEFSKDPDGNHFALIEIKIKTESEEIAEKIANELIDSVEEITEKYGVSSIISVEIIKK
# B6: LC3A_28_1084 (protein)
# chain: SEIEAQLKAAKAALEEAKAAGEEAYLEITVPETATQEDIDKVIKALKEFGELAKDAKKVSVVINLDGKIPQEFIDKLADAAEEIEEKVPNVTVIIALPDE
# B7: LC3A_free_39_2229 (protein)
# chain: SEEELEEAIKKLAELAGLPYEEVREKIEEIQKIAGLTTEQMLEIVKELIEAVEAGADAKEILEEAVKLAKELKEQGKTPEEIFEAILELIRDYRDLVPLD
# B8: LC3A_28_911 (protein)
# chain: SAIEESTERAIAEIEEAAARGEPAVVTLDATHPDVEEAKRLTREALERLREVALKHDGVTIIVDVPGHNYDAISAVADEADEALRKENPSNHIIVALDED
# B9: LC3A_3_1399 (protein)
# chain: FEKIKKEIIEELKKYGKSEEVIKAAKEAFELLEKKGYLKAAETLLEEVKKMENVSDEIMLDFFNEVKKLLETEDLSEEEVVEKIKELAKVALNEQEIIEL
# B10: LC3A_132_291 (protein)
# chain: QQEKAEELKKEIKEIVEEMKENIDDEEKVRKLLEELEKLMKRAEKELSPELLAEVFEELSELLEELSEEFDEAGKEDLALEADSLAIEAASLALRAKEKI
# B11: LC3A_13_333 (protein)
# chain: TIDIEVETPEELREKVGAALEAHPGETINVTATVKNEEEAEAIAEVLEELIDLAIEKGNTLNITLRGPKDVVNYAALLIGSHVFEHIDTANVSISTEVTP
# B12: LC3A_free_39_2237 (protein)
# chain: SMEEIDKLIKEIAEEGGIDYEYVREKLEEIKEIGELSDEQMLEIVKALLEAVKEGADAKEILEEILALTKELKAQGKSPEEILEAILETIEDYRNLVPLE
# B13: LC3A_28_791 (protein)
# chain: MEIEEQLERAREEVERALARGEEALVEIKVPSTTTLEDAKLLVEGLKEIAELGSSLPSLSIIIDVEGGLAQEVIDLLMEGGEEIEEKYPNVTVVIALEEE
# B14: LC3A_3_1914 (protein)
# chain: MEEELKELRELLKKLGHSEEVIEKFLEAAELLLKAGDKEGFELLKEMAKALKGLDESTQLAFAEDLLAELKKLGDDKEGRLKAAKHFLELAKNENEIIEI
# B15: LC3A_78_2089 (protein)
# chain: KSAFIVAATPETREEGERLAAKRTDYDEVVVVDLSDLEEVVTKYKDYDEIEVVIVAKTLEEVEEAEKKIKEILSDKNISSIYEYDEETGTWIGTVLVTKK
# B16: LC3A_3_1410 (protein)
# chain: LDEEVAALEALLRAAGHSEETIAAVRELVAEFRARGADEQAREALALVREAADLPSERLLEVLREVLRALREEGLSPEEAVALLRELLAIARAEQEIIEL
# B17: LC3A_3_1559 (protein)
# chain: IEEEKKKALEELKEAGKSEEVIKKAEETLNLLIEKGYEEAAKTFIEELKELIDLSDELLLDFLEEVLNYIKTKDLNEEEVIKKIKEIARITKNEGEIEEL
# B18: LC3A_28_1011 (protein)
# chain: MSLIEKTKEEAKKAIEEAKKGEDAFLEVEITEEATEEEVKEVLEIIEETAEEISKIENVKLYIVVDFDGDQEKLDLITDGLEEIEEKYPNVSSIIAYDEK
# B19: LC3A_28_939 (protein)
# chain: MTTEEDNAAALAKAKEAAAKGEPVVITLTVRGTDTEADIDRAIATLKEIAEILKDVKGAAIVVDVEAGVPEEHINRLADTGDEIEKKYPNINVIIALDED
# B20: LC3A_17_568 (protein)
# chain: TAELEAATAELLKTLEEAAKFAAKVDKEAAKKLKELIERVKAAAATKDPRTIATVGAEAAREAAEILESLKSPDPEKKEHLIMELEGDAIEFESLLLKLE
# B21: LC3A_free_8_2446 (protein)
# chain: KNQKLVTEITELLDELEEEVEKLAKELGLSRLDILELELEIGSVISDIIAATDDSIEKIKEIAEEDLEELEEIAKEYSEELAEKVREAKEEILELIEKYE
# B22: LC3A_free_39_2260 (protein)
# chain: AAERREAARARLLELAAKASPEVAAAVTALAELIADRVDALERLAELLERAIEKGPEVVAIAGQFAAEAVERIRAGADVDEAVEEMLRLIENAIEIEEID
# B23: LC3A_3_1599 (protein)
# chain: MEELVKELLERLRKAGFSEKVLEAAEKLLKALAEKGFEEAAEKAAEKLLENKDLPEELLVETLNELLYIVETEDLTEEEVIEKIEEEFEVARLEKEIEEL
# B24: LC3A_132_239 (protein)
# chain: NEELYEKLKKEIEEKLKEIEKNIDNLEKVKELVKELEKLLDKAEKELTPEQVLELAEETAEKLDEIREKAEEAGKEEVAALLENASMYADGIAIEAELKL
# B25: LC3A_28_1252 (protein)
# chain: SKVEEQLKKAKAEVKAAVAAGEEALVTLTVTKDTNQEDIEKIIEAMYELAELGKDLPALSIIIDVEKGVKQEHIDKLADAGEELEKKYPNVTVIIALEEE
# B26: LC3A_free_26_2133 (protein)
# chain: EEWLDIAALDKAIELVEKILEELEKRPGKYEKLLEKVKKALELLEKETLESLKKAAELLKEILKELKELKPEDPELMERLLKLVEEALELVEENIEIMES
# B27: LC3A_28_818 (protein)
# chain: SAAEKTIAALRAQAEAAKNSKEPVLLEVDVSGTITLEEAERLMEELERLSKELSKKHKVYVVINFTEPVAPEVQNLIMDKAEEIEEKYPNVSIIIALPEE
# B28: LC3A_17_538 (protein)
# chain: MEELREELEETLEELEALVKRIAPHLPEAAKKAREELKEARKLLEAGDLRAAAELVVKTADELADAIEKAKFEDPVQKEVLIMEAEGLAIEAESILLRLE
# B29: LC3A_45_1994 (protein)
# chain: MYRATVDVLVPREKAEEVAELAREIARELERKSNGKLTVDFEKFEETYEATKDEEDVLFEIVIYGEDKDLVLDAAVELSDRLIEKTGGVVSSIISVEELP
# Biological target: MAP1LC3A, Q9H492
# Test: median log2 fold change of GCK-ALFA target abundance (FLAG IP / Myc IP barcode read proportion) (log2 ratio); each designed protein is fused to an ALFA-tag nanobody in HEK293 cells to bring the named protein to FLAG-tagged glucokinase (GCK); Myc marks an untargeted standard; higher = target protein stabilised (more abundant)
# Details: target protein: 3xFLAG-MCP-GCK-ALFA reporter; HEK293 landing pad (RPLP)
# Summary of the method: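 Binders fused to an ALFA nanobody were recombined as a library into HEK293 landing-pad cells, which were induced with 2 μg mL^−1 doxycycline and then transfected to express a FLAG-tagged target and a Myc-tagged standard. After 48 h, circular RNA barcodes recovered by anti-FLAG and anti-Myc immunoprecipitation of lysates were reverse transcribed, amplified and sequenced. Each binder's target abundance is the median log2 ratio of FLAG to Myc barcode read proportions, from barcodes present at ≥10^−7 in both replicates, binders carrying ≥3 barcodes per replicate, a 10^−6 pseudocount and pooled replicates.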
row,Binder,median log2 fold change
1,B1,0.129
2,B2,-0.259
3,B3,-0.00837
4,B4,0.0947
5,B5,0.222
6,B6,0.204
7,B7,0.121
8,B8,0.0755
9,B9,0.146
10,B10,-0.27
11,B11,-0.0621
12,B12,0.0156
13,B13,0.117
14,B14,0.143
15,B15,0.0697
16,B16,0.205
17,B17,-0.0506
18,B18,-0.21
19,B19,0.0548
20,B20,0.256
21,B21,-0.14
22,B22,0.275
23,B23,0.0961
24,B24,0.0241
25,B25,0.158
26,B26,-0.322
27,B27,-0.294
28,B28,-0.126
29,B29,-0.143
